Scores whose standard error is large were omitted. Not listed are two conditions whose scores span a narrow range. Read del as a deletion of the residues named and ins as an insertion between two positions. For some of these results: How much ogerin was present is not stated here.
B1: GPR68, Q15743 (parent)
chain: MGNITADNSSMSCTIDHTIHQTLAPVVYVTVLVVGFPANCLSLYFGYLQIKARNELGVYLCNLTVADLFYICSLPFWLQYVLQHDNWSHGDLSCQVCGILLYENIYISVGFLCCISVDRYLAVAHPFRFHQFRTLKAAVGVSVVIWAKELLTSIYFLMHEEVIEDENQHRVCFEHYPIQAWQRAINYYRFLVGFLFPICLLLASYQGILRAVRRSHGTQKSRKDQIQRLVLSTVVIFLACFLPYHVLLLVRSVWEASCDFAKGVFNAYHFSLLLTSFNCVADPVLYCFVSETTHRDLARLRGACLAFLTCSRTGRAREAYPLGAPEASGKSGAQGEEPELLTKLHPAFQTPNSPGSGGFPTGRLA

Key:
[1] = variants of: B1; experiment: cAMP reporter score (Enrich2 score, wild type = 0); higher = more signal; HEK293T, FACS bins
[2] = variants of: B1; experiment: surface expression score (Enrich2 score, wild type = 0); higher = more signal; HEK293T, FACS bins

Variant	cAMP reporter score ([1]; pH 5.5)	cAMP reporter score ([1]; pH 6)	cAMP reporter score ([1]; pH 6, modulator: ogerin)	cAMP reporter score ([1]; pH 6.5, modulator: ogerin)	surface expression score [2]
G335I	0.041	-0.731	0.239	-0.111	0.157
G335K	0.525	2.14	0.735	0.792	1.69
G335L	0.737	0.615	0.616	0.898	0.877
G335M	0.393	-0.12	0.725	0.736	0.302
G335N	0.284	0.138	0.204	-0.175	0.354
G335P	-0.465	–	-1.17	-0.856	0.54
G335Q	0.452	-0.32	0.216	-0.141	0.534
G335R	1.38	1.37	1.17	0.996	0.627
G335S	0.619	0.057	0.188	1.08	-0.637
G335T	0.78	0.747	0.892	0.827	0.192
G335V	0.464	0.043	0.501	0.731	0.86
G335W	0.589	-0.834	0.472	0.79	-0.25
G335Y	1.45	0.809	1.39	0.168	1.12
G335_E336insGS	0.209	0.86	0.826	2.43	0.336
E336_E337insGS	1.02	–	1.22	1.01	1.5
E336_E337insGSG	0.54	0.625	0.582	0.92	0.993
E337_P338del	0.506	2.12	0.187	0.365	0.828
E337_P338insGSG	0.353	0.198	0.839	0.732	1.03
P338del	1.16	-0.338	0.584	0.318	0.083
L341A	1.5	0.345	1.77	0.925	1.06
L341C	0.228	-0.689	-0.359	-0.25	0.819

Variant	cAMP reporter score ([1]; pH 5.5)	cAMP reporter score ([1]; pH 6)	cAMP reporter score ([1]; pH 6, modulator: ogerin)	cAMP reporter score ([1]; pH 6.5, modulator: ogerin)	surface expression score [2]
L341D	0.596	2.22	0.611	-0.307	0.6
L341E	0.892	-0.06	1.43	0.342	1.01
L341F	-0.079	0.234	0.111	0.018	-0.116
L341G	0.916	-0.069	0.513	1.24	1.4
L341H	0.535	0.049	0.604	0.69	0.332
L341I	-0.358	0.121	-0.765	-0.627	-0.13
L341K	0.635	0.735	0.721	0.371	0.105
L341M	0.407	0.688	0.679	0.556	1.03
L341N	-0.409	-1.16	-0.297	-0.702	0.087
L341P	0.082	1.26	-0.2	0.134	0.48
L341Q	0.641	0.617	0.196	0.899	0.96
L341R	1.29	0.642	1.36	1.94	1.36
L341S	-0.393	-0.528	–	–	0.62
L341T	0.252	–	–	-0.451	–
L341V	1.36	1.01	1.9	1.77	1.51
L341W	0.238	-0.364	0.47	-0.209	0.349
L341Y	-0.306	-0.079	-0.11	-0.555	0.264
L341_T342del	0.95	–	0.94	1.37	1.17
L341_T342insG	-0.396	1.34	–	-0.233	–
L341_T342insGSG	0.836	–	0.38	0.857	0.851
L341del	1.47	0.856	1.5	1.19	2.32

Variant	cAMP reporter score ([1]; pH 5.5)	cAMP reporter score ([1]; pH 6)	cAMP reporter score ([1]; pH 6, modulator: ogerin)	cAMP reporter score ([1]; pH 6.5, modulator: ogerin)	surface expression score [2]
T342_L344del	0.478	1.05	1.02	1.13	1.26
K343_L344insG	-0.138	0.312	0.237	-0.398	0.142
L344del	0.745	–	-0.034	-0.441	1.2
P346del	3.15	1.67	-0.298	3.15	1.1
A347_F348insGSG	0.633	0.559	0.772	1.19	0.502
F348_Q349insG	0.738	0.694	–	–	0.509
F348_Q349insGSG	0.553	0.059	0.692	1.1	1.3
Q349_T350del	0.82	0.002	0.935	0.597	0.478
P351_N352del	0.479	-0.17	0.064	0.488	0.321
N352A	0.466	0.159	0.472	0.581	1.59
N352C	0.525	-0.611	0.43	-0.494	0.173
N352D	-0.706	-0.151	-0.331	-0.06	0.04
N352E	-0.417	–	-0.717	-0.427	–
N352F	0.772	–	0.81	0.691	-0.084
N352G	1.26	-0.698	0.641	0.798	0.546
N352H	0.372	0.083	0.46	0.534	0.361
N352I	0.137	0.952	-0.008	0.331	-0.193
N352K	0.558	0.011	0.554	0.708	0.113
N352L	0.725	0.261	0.874	-0.43	0.486
N352M	0.867	0.397	0.664	1.25	0.902
N352P	-0.07	0.575	0.502	0.232	0.72

— the GPR68 mutational scans of Howard et al. (2025)
